Data reported in patent US10907158B2, “Antisense antibacterial compounds and methods” (priority 2015, dated 2021).

System: Klebsiella pneumoniae F45153
Conditions: Pip/Tazo alone, 18 h, MHII

## Piperacillin/Tazobactam [Pip/Tazo]
  MIC: 2 µg/mL
